From the supplement of paper PMC12230231

system: SIVsab (simian immunodeficiency virus of sabaeus monkeys), single-cycle GFP reporter, in CRFK cells; experiment: enrichment among uninfected cells over input (fold); higher = stronger restriction; conditions: library: human / rhesus combinations
Procedure: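 Pools of CRFK cells expressing variants of the TRIM5α v1 loop were challenged with the single-cycle reporter, sorted by GFP and sequenced; mean of two replicates.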

| Sequence | enrichment |
| --- | --- |
| MASGILVNVKEEVTCPICLELLTQPLSLDCGHSFCQACLTANHKKSMLDKGESSCPVCRISYQPENIRPNRHVANIVEKLREVKLSPEGQKVDHCARHGEKLLLFCQEDGKVICWLCERSQEHRGHHTFLTEEVAREYQVKLQAALEMLRQKQQEAEELEADIREEKASWKTQIQYDKTNVLADFEQLRDILDWEESNELQNLEKEEEDILKSLTNSETEMVQQTQSLRELISDLEHRLQGSVMELLQGVDGVIKRTENVTLKKPETFPKNQRRVFRAPDLKGMLEVFRELTDVRRYWVDVTVAPNNISCAVISEDKRQVSSPKPQIIYGAPGTLFTFQSFVNFNYCTGILGSQSITSGKHYWEVDVSKKTAWILGVCAGFQPDAMCNIEKNENYQPKYGYWVIGLEEGVKCSAFQDSSFHTPSVPFIVPLSVIICPDRVGVFLDYEACTVSFFNITNHGFLIYKFSHCSFSQPVFPYLNPRKCGVPMTLCSPSS [human TRIM5α, 330-340 = GAPGTLFTFQSFV] | 0.0828 ± 0.12 |
| MASGILVNVKEEVTCPICLELLTQPLSLDCGHSFCQACLTANHKKSMLDKGESSCPVCRISYQPENIRPNRHVANIVEKLREVKLSPEGQKVDHCARHGEKLLLFCQEDGKVICWLCERSQEHRGHHTFLTEEVAREYQVKLQAALEMLRQKQQEAEELEADIREEKASWKTQIQYDKTNVLADFEQLRDILDWEESNELQNLEKEEEDILKSLTNSETEMVQQTQSLRELISDLEHRLQGSVMELLQGVDGVIKRTENVTLKKPETFPKNQRRVFRAPDLKGMLEVFRELTDVRRYWVDVTVAPNNISCAVISEDKRQVSSPKPQIIYGARGTRFTFQTLTNFNYCTGILGSQSITSGKHYWEVDVSKKTAWILGVCAGFQPDAMCNIEKNENYQPKYGYWVIGLEEGVKCSAFQDSSFHTPSVPFIVPLSVIICPDRVGVFLDYEACTVSFFNITNHGFLIYKFSHCSFSQPVFPYLNPRKCGVPMTLCSPSS [human TRIM5α, 330-340 = GARGTRFTFQTLT] | 0.115 ± 0.054 |
| MASGILVNVKEEVTCPICLELLTQPLSLDCGHSFCQACLTANHKKSMLDKGESSCPVCRISYQPENIRPNRHVANIVEKLREVKLSPEGQKVDHCARHGEKLLLFCQEDGKVICWLCERSQEHRGHHTFLTEEVAREYQVKLQAALEMLRQKQQEAEELEADIREEKASWKTQIQYDKTNVLADFEQLRDILDWEESNELQNLEKEEEDILKSLTNSETEMVQQTQSLRELISDLEHRLQGSVMELLQGVDGVIKRTENVTLKKPETFPKNQRRVFRAPDLKGMLEVFRELTDVRRYWVDVTVAPNNISCAVISEDKRQVSSPKPQIIYGAPGTLFTFPSFVNFNYCTGILGSQSITSGKHYWEVDVSKKTAWILGVCAGFQPDAMCNIEKNENYQPKYGYWVIGLEEGVKCSAFQDSSFHTPSVPFIVPLSVIICPDRVGVFLDYEACTVSFFNITNHGFLIYKFSHCSFSQPVFPYLNPRKCGVPMTLCSPSS [human TRIM5α, 330-340 = GAPGTLFTFPSFV] | 13.8 ± 1.8 |
| MASGILVNVKEEVTCPICLELLTQPLSLDCGHSFCQACLTANHKKSMLDKGESSCPVCRISYQPENIRPNRHVANIVEKLREVKLSPEGQKVDHCARHGEKLLLFCQEDGKVICWLCERSQEHRGHHTFLTEEVAREYQVKLQAALEMLRQKQQEAEELEADIREEKASWKTQIQYDKTNVLADFEQLRDILDWEESNELQNLEKEEEDILKSLTNSETEMVQQTQSLRELISDLEHRLQGSVMELLQGVDGVIKRTENVTLKKPETFPKNQRRVFRAPDLKGMLEVFRELTDVRRYWVDVTVAPNNISCAVISEDKRQVSSPKPQIIYGARGTLFTFQSLVNFNYCTGILGSQSITSGKHYWEVDVSKKTAWILGVCAGFQPDAMCNIEKNENYQPKYGYWVIGLEEGVKCSAFQDSSFHTPSVPFIVPLSVIICPDRVGVFLDYEACTVSFFNITNHGFLIYKFSHCSFSQPVFPYLNPRKCGVPMTLCSPSS [human TRIM5α, 330-340 = GARGTLFTFQSLV] | 0.0665 ± 0.093 |
| MASGILVNVKEEVTCPICLELLTQPLSLDCGHSFCQACLTANHKKSMLDKGESSCPVCRISYQPENIRPNRHVANIVEKLREVKLSPEGQKVDHCARHGEKLLLFCQEDGKVICWLCERSQEHRGHHTFLTEEVAREYQVKLQAALEMLRQKQQEAEELEADIREEKASWKTQIQYDKTNVLADFEQLRDILDWEESNELQNLEKEEEDILKSLTNSETEMVQQTQSLRELISDLEHRLQGSVMELLQGVDGVIKRTENVTLKKPETFPKNQRRVFRAPDLKGMLEVFRELTDVRRYWVDVTVAPNNISCAVISEDKRQVSSPKPQIIYQAPGTLFPSLVNFNYCTGILGSQSITSGKHYWEVDVSKKTAWILGVCAGFQPDAMCNIEKNENYQPKYGYWVIGLEEGVKCSAFQDSSFHTPSVPFIVPLSVIICPDRVGVFLDYEACTVSFFNITNHGFLIYKFSHCSFSQPVFPYLNPRKCGVPMTLCSPSS [human TRIM5α, 330-340 = QAPGTLFPSLV] | 0.0653 ± 0.085 |

same assay, conditions: library: insertions and deletions

| Sequence | enrichment |
| --- | --- |
| MASGILVNVKEEVTCPICLELLTQPLSLDCGHSFCQACLTANHKKSMLDKGESSCPVCRISYQPENIRPNRHVANIVEKLREVKLSPEGQKVDHCARHGEKLLLFCQEDGKVICWLCERSQEHRGHHTFLTEEVAREYQVKLQAALEMLRQKQQEAEELEADIREEKASWKTQIQYDKTNVLADFEQLRDILDWEESNELQNLEKEEEDILKSLTNSETEMVQQTQSLRELISDLEHRLQGSVMELLQGVDGVIKRTENVTLKKPETFPKNQRRVFRAPDLKGMLEVFRELTDVRRYWVDVTVAPNNISCAVISEDKRQVSSPKPQIIYGARGTRYQTFVNFNYCTGILFNYCTGILGSQSITSGKHYWEVDVSKKTAWILGVCAGFQPDAMCNIEKNENYQPKYGYWVIGLEEGVKCSAFQDSSFHTPSVPFIVPLSVIICPDRVGVFLDYEACTVSFFNITNHGFLIYKFSHCSFSQPVFPYLNPRKCGVPMTLCSPSS [human TRIM5α, 8-codon duplication at 342] | 0.531 ± 0.65 |
| MASGILVNVKEEVTCPICLELLTQPLSLDCGHSFCQACLTANHKKSMLDKGESSCPVCRISYQPENIRPNRHVANIVEKLREVKLSPEGQKVDHCARHGEKLLLFCQEDGKVICWLCERSQEHRGHHTFLTEEVAREYQVKLQAALEMLRQKQQEAEELEADIREEKASWKTQIQYDKTNVLADFEQLRDILDWEESNELQNLEKEEEDILKSLTNSETEMVQQTQSLRELISDLEHRLQGSVMELLQGVDGVIKRTENVTLKKPETFPKNQRRVFRAPDLKGMLEVFRELTDVRRYWVDVTVAPNNISCAVISEDKRQVSSPKPQIIYGARGTRYQTFVNFNYCTGICTGILGSQSITSGKHYWEVDVSKKTAWILGVCAGFQPDAMCNIEKNENYQPKYGYWVIGLEEGVKCSAFQDSSFHTPSVPFIVPLSVIICPDRVGVFLDYEACTVSFFNITNHGFLIYKFSHCSFSQPVFPYLNPRKCGVPMTLCSPSS [human TRIM5α, 4-codon duplication at 345] | 0.787 ± 0.38 |
| MASGILVNVKEEVTCPICLELLTQPLSLDCGHSFCQACLTANHKKSMLDKGESSCPVCRISYQPENIRPNRHVANIVEKLREVKLSPEGQKVDHCARHGEKLLLFCQEDGKVICWLCERSQEHRGHHTFLTEEVAREYQVKLQAALEMLRQKQQEAEELEADIREEKASWKTQIQYDKTNVLADFEQLRDILDWEESNELQNLEKEEEDILKSLTNSETEMVQQTQSLRELISDLEHRLQGSVMELLQGVDGVIKRTENVTLKKPETFPKNQRRVFRAPDLKGMLEVFRELTDVRRYWVDVTVAPNNISCAVISEDKRQVSSPKPQIIYGARGTRYQTFVNFNYCTGILNYCTGILGSQSITSGKHYWEVDVSKKTAWILGVCAGFQPDAMCNIEKNENYQPKYGYWVIGLEEGVKCSAFQDSSFHTPSVPFIVPLSVIICPDRVGVFLDYEACTVSFFNITNHGFLIYKFSHCSFSQPVFPYLNPRKCGVPMTLCSPSS [human TRIM5α, 7-codon duplication at 343] | 1.06 ± 0.51 |

± gives the standard deviation of the averaged measurements. Restriction of a single-cycle SIVsab GFP reporter by TRIM5α v1-loop variants in CRFK cells. Human variants: read share among cells still uninfected after two challenges over input, higher = gained restriction. Rhesus variants: share among infected cells over input, higher = lost restriction. Reporter dose not given per row. No active / inactive call per row; the paper calls a change when both replicates lie above its controls (mean + 2 SD of stop or wild-type variants, or the top frameshift score). Residues outside the varied loop are taken from Swiss-Prot. The paper reads the human single-substitution scores as noise; they and the rhesus combinations repeat poorly (rank correlation 0.3 to 0.4), indel scores repeat only for the top variants, rhesus substitutions well (0.9).
